Data reported in the supplement of paper PMC4967469.
The IC50 comes from the fitted curve, where viability falls to half of the control; fits outside the tested doses are given as limits. AUC, from the same fit, is the share of area under the viability curve across the 256-fold dose range: 1 means no effect, lower means more sensitive. The top dose, if marked as inferred, comes from the curve model; the source does not state it. For part of these data: An entry number marks a drug with two screens in the source, which often give different values.

Assays:
Experiment in all cases: Viability of human cancer cell lines after 72 h of drug (GDSC screen)
AZD6482 = compound: Cc1cc([C@@H](C)Nc2ccccc2C(=O)O)c2nc(N3CCOCC3)cc(=O)n2c1 [AZD6482]
Procedure: (§1)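 Human cancer cell lines in 384-well plates, medium with 10% serum, drug for 72 h over a 256-fold dose range (nine 2-fold or five 4-fold steps up to the top dose). Adherent lines were fixed and stained with the nucleic acid dye Syto60, suspension lines read with resazurin; signal relative to control wells, capped at 0 and 100%. One two-parameter sigmoid per drug and line, fitted in a mixed model over all curves with the slope shared within a line.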

BMN-673 = compound: Cn1ncnc1[C@H]1c2n[nH]c(=O)c3cc(F)cc(c23)N[C@@H]1c1ccc(F)cc1 [BMN-673]; details: top dose 10 µM; top dose inferred
Procedure: as §1

MLN4924 = compound: NS(=O)(=O)OC[C@@H]1C[C@@H](n2ccc3c(N[C@H]4CCc5ccccc54)ncnc32)C[C@@H]1O [MLN4924]; details: top dose 1 µM; top dose inferred
Procedure: as §1

[1] = top dose 5 µM, screen: GDSC drug entry 1066, top dose inferred
[2] = top dose 5.12 µM, screen: GDSC drug entry 156

| Cell Line | AUC (AZD6482; [1]) | IC50 (AZD6482; [1]) | AUC (AZD6482; [2]) | IC50 (AZD6482; [2]) | AUC (BMN-673) | IC50 (BMN-673) | AUC (MLN4924) | IC50 (MLN4924) |
| --- | --- | --- | --- | --- | --- | --- | --- | --- |
| NCI-H2227 (small cell lung carcinoma, semi-adherent) | 0.986 | > 5000 nM | 0.981 | > 5120 nM | 0.908 | > 10000 nM | 0.854 | 959 nM |
| MEL-HO (melanoma, adherent) | 0.834 | 3310 nM |  |  | 0.868 | 9330 nM | 0.686 | 209 nM |
| MS-1 (small cell lung carcinoma, suspension) | 0.979 | > 5000 nM | 0.96 | > 5120 nM | 0.954 | > 10000 nM | 0.971 | > 1000 nM |
| SiHa (cervix, adherent) | 0.986 | > 5000 nM | 0.983 | > 5120 nM | 0.906 | > 10000 nM | 0.714 | 279 nM |
| OSC-19 (head and neck, adherent) | 0.936 | > 5000 nM | 0.949 | > 5120 nM | 0.944 | > 10000 nM | 0.924 | > 1000 nM |
| NCI-H838 (lung adenocarcinoma, adherent) | 0.893 | > 5000 nM | 0.967 | > 5120 nM | 0.867 | 9680 nM | 0.484 | 56.3 nM |
| JAR (urogenital system, adherent) | 0.867 | 4340 nM | 0.988 | > 5120 nM | 0.903 | > 10000 nM | 0.953 | > 1000 nM |
| SUP-HD1 (Hodgkin lymphoma, suspension) | 0.947 | > 5000 nM | 0.96 | > 5120 nM | 0.613 | 1250 nM | 0.805 | 477 nM |
| PCI-38 (head and neck, adherent) | 0.944 | > 5000 nM | 0.984 | > 5120 nM | 0.868 | 9220 nM | 0.692 | 218 nM |
| MOLP-8 (myeloma, suspension) | 0.891 | > 5000 nM | 0.827 | 2970 nM | 0.669 | 1810 nM | 0.728 | 270 nM |
| JVM-3 (lymphoid neoplasm, suspension) | 0.869 | 4720 nM | 0.987 | > 5120 nM | 0.644 | 1570 nM | 0.677 | 197 nM |
| SNU-61 (large intestine, adherent) | 0.963 | > 5000 nM |  |  | 0.979 | > 10000 nM | 0.976 | > 1000 nM |
| IPC-298 (melanoma, adherent) | 0.61 | 623 nM | 0.94 | > 5120 nM | 0.921 | > 10000 nM | 0.915 | > 1000 nM |
| SU-DHL-5 (B-cell lymphoma, suspension) | 0.568 | 457 nM | 0.476 | 280 nM | 0.524 | 713 nM | 0.67 | 162 nM |
| WM793B (melanoma, adherent) | 0.77 | 2110 nM | 0.409 | 176 nM | 0.69 | 2270 nM | 0.66 | 183 nM |
| A204 (rhabdomyosarcoma, adherent) | 0.781 | 2720 nM | 0.775 | 2650 nM | 0.669 | 2140 nM | 0.807 | 707 nM |

| Cell Line | AUC (AZD6482; [1]) | IC50 (AZD6482; [1]) | AUC (AZD6482; [2]) | IC50 (AZD6482; [2]) | AUC (BMN-673) | IC50 (BMN-673) | AUC (MLN4924) | IC50 (MLN4924) |
| --- | --- | --- | --- | --- | --- | --- | --- | --- |
| EGI-1 (biliary tract, adherent) | 0.917 | > 5000 nM | 0.98 | > 5120 nM | 0.883 | > 10000 nM | 0.951 | > 1000 nM |
| NUGC-3 (stomach, adherent) | 0.934 | > 5000 nM | 0.957 | > 5120 nM | 0.445 | 435 nM | 0.738 | 329 nM |
| NCI-H146 (small cell lung carcinoma, suspension) | 0.985 | > 5000 nM |  |  | 0.989 | > 10000 nM | 0.865 | 598 nM |
| FU-OV-1 (ovary, adherent) | 0.913 | > 5000 nM | 0.71 | 1530 nM | 0.949 | > 10000 nM | 0.977 | > 1000 nM |
| YKG-1 (glioma, adherent) | 0.9 | > 5000 nM | 0.896 | > 5120 nM | 0.72 | 2660 nM | 0.821 | 589 nM |
| 647-V (bladder, adherent) | 0.885 | > 5000 nM | 0.873 | 4990 nM | 0.462 | 492 nM | 0.529 | 75 nM |
| JM1 (B-cell lymphoma, suspension) | 0.935 | > 5000 nM | 0.968 | > 5120 nM | 0.564 | 910 nM | 0.831 | 512 nM |
| OACM5-1 (oesophagus, semi-adherent) | 0.984 | > 5000 nM |  |  | 0.985 | > 10000 nM | 0.985 | > 1000 nM |
| P32-ISH (Burkitt lymphoma, suspension) | 0.978 | > 5000 nM | 0.842 | 2360 nM | 0.577 | 962 nM | 0.827 | 419 nM |
| COLO-205 (large intestine, suspension) | 0.961 | > 5000 nM | 0.935 | > 5120 nM | 0.976 | > 10000 nM | 0.933 | > 1000 nM |
| 23132-87 (stomach, adherent) | 0.709 | 1250 nM | 0.839 | 3680 nM | 0.789 | 4600 nM | 0.909 | > 1000 nM |
| PA-TU-8988T (pancreas, adherent) | 0.772 | 1940 nM | 0.928 | > 5120 nM | 0.906 | > 10000 nM | 0.813 | 543 nM |
| HO-1-u-1 (head and neck, adherent) | 0.959 | > 5000 nM | 0.97 | > 5120 nM | 0.875 | 9090 nM | 0.802 | 468 nM |
| COLO-824 (breast, adherent) | 0.984 | > 5000 nM | 0.948 | > 5120 nM | 0.977 | > 10000 nM | 0.826 | 623 nM |
| HDLM-2 (Hodgkin lymphoma, suspension) | 0.985 | > 5000 nM | 0.965 | > 5120 nM | 0.845 | 7050 nM | 0.932 | > 1000 nM |
